Where “and” joins values, the source holds several entries; their conditions need not be identical. Equal entries are not always repeated.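 A five-concentration, 48-hour dose response in 96-well plates underlies each endpoint, interpolated linearly between surrounding concentrations. Abbreviation: GI50, concentration required for 50% inhibition of growth. TGI denotes the concentration required for complete inhibition of growth.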 Some results are limits rather than exact numbers.

For this assay, the system named is NCI-H322M lung. Description: inhibition of tumour cell growth, NCI panel, 48 h.
For the compound `COC(=O)/C=C/c1cc(OC)c2c(c1)C(C(=O)OC)C(c1ccc(O)c(OC)c1)O2` (configuration not stated), the GI50 is 29.2 µM and 5.23 µM and 9.97 µM; the TGI was > 100 µM and 77.1 µM.

On to `CN1CCN2CCN(C)CCN(CC1)CC2`, for which the TGI was more than 100 µM.

For the compound `O=c1oc2ccc([N+](=O)[O-])cc2cc1-c1csc(-c2ccccc2)n1`, the TGI was more than 100 µM.

`CC12CCC(C)(c3cc(O)c(O)cc31)c1cc(O)c(O)cc12` returned a TGI of 44.7 µM.

Turning to `Cc1cnc2n(c1=O)Cc1ccccc1CO2`, the GI50 was 17.7 µM and the TGI came to 37.3 µM.

Turning to `COc1cc(-c2cc(C(=O)N3CCN(C(=O)c4ccccc4NCc4cccs4)CC3)nc3cc(-c4ccccc4)nn23)cc(OC)c1OC`, the GI50 is more than 100 µM and the TGI was more than 100 µM.

With `O=C1/C=C/[C@@H](O)[C@@H]2C[C@@H](O)C[C@H]2/C=C/CCCCO1`, the GI50 is 0.816 µM and the TGI was determined as 97.8 µM.

`Nc1[nH]nc2c1Cc1c(n(Cc3ccc(Cl)cc3)c3ccccc13)C(=O)N2`: the TGI was determined as 27.3 µM.

Compound `O=c1[nH]nc(-c2ccccc2)c2[nH]c3c(c12)CCCc1ccccc1-3` came in with a TGI of 83.9 µM.

`O=C1OC(/C=C/c2ccccc2)C(=O)C1=O` (configuration not stated) returned a TGI of more than 100 µM.

Compound `Cc1ccc(S(=O)(=O)N/N=C2/C3CC4CCC2C4C3)cc1` (configuration not stated) returned a TGI of more than 100 µM.

In the case of `CN(C)C=Nc1cccc2c1NSN2`, the TGI was more than 100 µM.

Compound `COC(=O)Cc1c(-c2c(CC(=O)OC)c3ccccc3n2C2OC(COC3OC(COC(C)=O)C(OC(C)=O)C(OC(C)=O)C3OC(C)=O)C(O)C(O)C2O)[nH]c2ccccc12` (configuration not stated) returned a TGI of more than 100 µM.

`O=C1OC(=O)C2C1C1(c3ccccc3)OC2(c2ccccc2)c2c(Br)c(Br)c(Br)c(Br)c21` (configuration not stated) yielded a TGI of more than 100 µM.

`O=C(O)COc1cccc2ccccc(=O)c12` showed a TGI of more than 100 µM.

For `COC(=O)c1cccc(COc2ccc([N+](=O)[O-])cc2Cl)c1`, the TGI is more than 100 µM.

`CC(=O)O[C@H]1CC[C@@]2(C)[C@@H](CC[C@@H]3[C@@H]2CC(=O)[C@@]2(C)[C@H]3C[C@@H]3CC(C)=CC(=O)[C@@H]32)C1`: the TGI was more than 100 µM.

Compound `COc1ccccc1NC(=O)C(=O)C(C#N)CC(C)(C)C=O` (configuration not stated) yielded a TGI of more than 100 µM.

With `CCOC(=O)C(C(=O)OCC)C(=S)NC1OC(COC(C)=O)C(OC(C)=O)C(OC(C)=O)C1OC(C)=O` (configuration not stated), the TGI was more than 100 µM.

Compound `C[C@H](N)C(=O)Nc1ccc(-c2nc3ccccc3s2)cc1Cl` showed a TGI of 27.1 µM.

Turning to `CCCCCCCCCCCCCCCc1nc(SCC(=O)O)n[nH]1`, the TGI is more than 100 µM.

As to `COC(=O)/C=C/[C@H]1[C@H](C)N1S(=O)(=O)c1ccc(C)cc1` (some centres not stated), the TGI was more than 100 µM.

For the compound `Fc1cccc(C2SCc3nc4ccccc4n32)c1` (configuration not stated), the TGI is more than 100 µM.

Regarding `COc1ccc(OC/C(N=Cc2cccnc2)=N/NC(=O)c2ccncc2)cc1`, the TGI was more than 100 µM.

In the case of `COc1ccc(-c2cc(-c3ccncc3)nc(N)c2-c2ccc(F)cc2)cc1`, the TGI is more than 100 µM.

Compound `O=C1C2Cc3ccccc3CN2C(=O)N1CCN1CCOCC1` (configuration not stated) showed a TGI of more than 100 µM.

For the compound `[B]C(=O)NC(CC(C)C)C(=O)NC1c2ccsc2C(=O)C1O` (configuration not stated) (tested in a mixture with another compound), the TGI is more than 100 µM.

In the case of `COc1ccc2c(c1)[n+](=O)c(C(=O)C/C(=N\NC(=O)C[N+](C)(C)C)C(=O)Nc1cc(Cl)ccc1Cl)c(C)n2O`, the TGI is more than 100 µM.

In turn, `COc1ccc(OC)c2c1-c1nnnn1CCC2(C)C` showed a TGI of more than 100 µM.

Compound `CCOC(=O)C1=CN(Cc2ccccc2)C2ON=C(c3ccc(Cl)cc3)C2C1` (configuration not stated) gave a TGI of more than 81 µM.

`COc1ccc(C(CC(=O)c2ccc(O)cc2)C(C(=O)c2ccc(O)cc2)C(c2ccc(OC)cc2)C2C(=O)NC(=S)NC2=O)cc1` (configuration not stated) showed a TGI of 45.4 µM.

`COc1ccc(/C=C/c2cnnc3ccccc23)cc1OC` yielded a TGI of more than 10 µM.

For the compound `Cc1cc(=O)[nH]c2c1C(=O)C(=O)C=C2`, the GI50 is 23.7 µM and the TGI is 46.2 µM.

The compound `O=C1C=C(NCCc2ccc(O)cc2)C(=O)C=C1NCCc1ccc(O)cc1` came in with a TGI of more than 100 µM.

In turn, `Cc1csc(CP(=O)(OC(C)C)OC(C)C)n1` registered a TGI of more than 100 µM.

`CC(=O)Oc1cc(OC(C)=O)c(OC(C)=O)c2c1CC1C(=O)C3(CCc4ccccc43)C(=O)C1C2` (configuration not stated): the TGI is more than 100 µM.

As to `O=C(O)c1cccc(F)c1C(=O)c1ccc2ccccc2c1`, the TGI is more than 100 µM.

As for `COc1cc2c(cc1OC)-c1c(c3ccc([N+](=O)[O-])cc3c(=O)n1CCCBr)C2=O`, the GI50 was 21.9 µM and the TGI was more than 100 µM.

With `C[C@H](OC(=O)/C=C/c1ccc(O)c(O)c1)[C@H](C)OC(=O)/C=C/c1ccc(O)c(O)c1`, the TGI was determined as 30.3 µM.

For `C/C(=N\O)c1ccc(Nc2cc(-c3ccccc3)nc3c(O)cccc23)cc1`, the GI50 was 12.5 µM and the TGI was 30.5 µM.

`O=CC1C(=O)Nc2nc3ccccc3n2C1c1ccccc1` (configuration not stated) gave a TGI of 33.9 µM.

As to `COc1ccc2nc3c(cc2c1)C(=O)CC(C(F)(F)F)C3` (configuration not stated), the GI50 was 2.62 µM and the TGI is more than 100 µM.

`COc1ccc2oc(=O)c(-c3nc4ccccc4s3)cc2c1` had a TGI of more than 73.4 µM.

On to `COc1ccc(/C=C\c2cc(OC)c(OC(C)=O)c(OC)c2)cc1`, for which the TGI was more than 100 µM.

`COc1ccc(Nc2cnc3cc(N)ccc3n2)cc1OC` returned a TGI of more than 100 µM.

On to `COc1cc(/C=C2\CCCC3=C2N=C2SC=NN2C3c2cc(OC)c(OC)c(OC)c2)cc(OC)c1OC` (configuration not stated), for which the GI50 is 5.47 µM and the TGI is more than 100 µM.

For `CCCCCCOc1ccc(/C=N/Nc2cc(C)nc3ccc(Br)cc23)cc1`, the GI50 is 1.71 µM and the TGI stood at 3.08 µM.

Take `COc1cccc(/C=N/[N-]C(N)=O)c1[O-].[Cu+2].c1ccncc1`: the TGI worked out at 38.3 µM.

As for `NC(CSC(c1ccccc1)(c1ccccc1)c1ccc(Br)cc1)C(=O)O` (configuration not stated), the GI50 is 0.111 µM and the TGI is more than 86.7 µM.

In the case of `O=C(Nc1ccc(-n2cc(-c3ccncc3)c(-c3ccc(Cl)c(O)c3)n2)cc1)c1ccc(Cl)c(C(F)(F)F)c1`, the GI50 was 3.11 µM and the TGI is more than 25.2 µM.

`O=c1n(CC2CO2)c2ccccc2n1CC1CS1` (configuration not stated) yielded a TGI of more than 100 µM.

Consider `O=C(O)c1cc2sc(C(=O)O)cc2s1`, for which the TGI was more than 100 µM.

Take `Nc1c(C(=O)Nc2cccc3ccccc23)sc2nc3c(cc12)CCCCCC3`: the GI50 was 4.24 µM and the TGI was more than 50 µM.

With `O=C1OCC(CN2CCC(n3c(=O)[nH]c4ccccc43)CC2)=C1c1ccccc1`, the TGI is 69.3 µM.

For the compound `Nc1nc(N)c(N=Nc2ccc([As](=O)(O)O)c(O)c2)c(N)n1`, the TGI was more than 100 µM.

Compound `COc1ccc([C@H]2C=C(c3cc(F)c(Cl)cc3Cl)N=c3s/c(=C\c4ccc(-c5ccc(Cl)cc5Cl)o4)c(=O)n32)cc1` returned a TGI of more than 100 µM.

With `COc1cc(Cl)c(C)cc1NC(=O)c1cc2ccccc2cc1O`, the GI50 was 3.04 µM and the TGI came out at 17.2 µM.

On to `CC1(C)C/C=C\CCC(O)C(O)CCC(C)(C)C1=O` (configuration not stated), for which the TGI is more than 100 µM.

On to `CN(CC(=O)O)Cc1c[nH]c2ccccc12`, for which the TGI was more than 100 µM.

Regarding `Nc1ncnc2c1c(-c1ccc(Oc3ccccc3)cc1)nn2C[C@H]1SSC[C@H]1O`, the GI50 was 1.12 µM and the TGI worked out at 4.13 µM.

On to `CSc1nc(NC2OC(CO)C(O)C(O)C2O)c(N)c(=O)[nH]1` (configuration not stated), for which the TGI is more than 100 µM.

In the case of `CC(=O)Oc1ccc(C2SCc3nc4ccccc4n32)cc1` (configuration not stated), the TGI was more than 100 µM.

The values above are taken from PubChem BioAssay (NCI).
